Source: ChEMBL document CHEMBL4888484, “Replenishing the malaria drug discovery pipeline: Screening and hit evaluation of the MMV Hit Generation Library 1 (HGL1) against asexual blood stage Plasmodium falciparum ,using a nano luciferase reporter read-out” (2022)
Screen size: about 150,000 compounds; about 540 (0.36%) showed an effect of 50% or more. The list shows a part of the results.

The molecules below were run on Plasmodium falciparum (assay: Primary screen in NF54 nanoGlo assay, in single point, at 2uM, 72h; a lower Z score goes with more inhibition). Settings: timepoint 72 hour.
Format: functional, Erythrocyte
`CN(C)c1ccccc1N(C)C[C@H]1CCOC1` was tested, and the “% Inhibition” value was -7% and the Z score was 0.67. In the case of `CCN(C(=O)N1CCC(OC)(OC)[C@@H](O)C1)C(C)C`, the “% Inhibition” value is reported as 3% and the Z score is reported as -0.47. In the case of `CCOC(=O)[C@@H](c1cc(Cl)cc(Cl)c1)N(CC)C(=O)CN(C)S(C)(=O)=O`, the “% Inhibition” value is reported as 6% and the Z score is reported as -0.92. `Cc1nc(-c2ccccc2)sc1C(C)NC(=O)CC(C)C1CCNCC1` (configuration not stated) was tested, and the “% Inhibition” value was -10% and the Z score was 1.03. For `CC[C@@H](CO)N1CCN(C(=O)Nc2cccc3ccn(C)c23)CC1`, the “% Inhibition” value was 4% and the Z score was -0.69. With `Cc1cc(NC(=O)NCCN2CCC(O)CC2)cnc1C(F)(F)F` the “% Inhibition” value was -1% and the Z score was 0.21. For `Cc1csc(C(=O)N[C@@H](CC(C)C)C(=O)O)c1`, the “% Inhibition” value was -12% and the Z score was 2.21. For `CCN(C(=O)[C@H]1CCCN(S(=O)(=O)c2ccc3c(c2)NC(=O)CO3)C1)c1ccc(OC)cc1`, the “% Inhibition” value was -4% and the Z score was 0.61. For `O=C(Cn1c(=O)[nH]c2c(-c3ccc(F)cc3)c[nH]c2c1=O)N1CCN(Cc2ccccc2)CC1`, the “% Inhibition” value was -12% and the Z score was 1.87. In the case of `COc1cccc2c1OC[C@@H](C(=O)NCCS(=O)(=O)N1CCCC1)C2`, the “% Inhibition” value is reported as -4% and the Z score is reported as 0.54. With `Cc1ccc(F)c(N2CCC(NC(=O)c3cscn3)CC2)c1` the “% Inhibition” value was -8% and the Z score was 0.91. `COC(C)(C(=O)O)C(=O)NC1CCCC1c1ccccc1C(F)(F)F` (configuration not stated) was tested, and the “% Inhibition” value was -11% and the Z score was 1.49. `COc1ccc(-c2ccc(=O)n([C@@H](C)C(=O)Nc3cc(C)no3)n2)cc1` was tested, and the “% Inhibition” value was 27% and the Z score was -3.55. With `COc1ccc([C@H](C(=O)O)N2CCC(c3nc4ccccc4o3)CC2)cc1F` the “% Inhibition” value was -14% and the Z score was 2.64. `CCc1nc2c(c(O[C@H]3CCCN(S(=O)(=O)Cc4ccccc4)C3)n1)CCOCC2` was tested, and the “% Inhibition” value was -13% and the Z score was 2.01. With `CC(C)S(=O)(=O)CC(=O)Nc1cc(C(F)(F)F)c(F)cc1O` the “% Inhibition” value was -7% and the Z score was 0.83. In the case of `C=C(C)CN1CCCC[C@@H]1Cn1nc(C)nc1C`, the “% Inhibition” value is reported as -3% and the Z score is reported as 0.53. With `C=CCn1cnc2c1c(=O)n(C1CC1)c(=O)n2-c1cccc(Cl)c1` the “% Inhibition” value was 5% and the Z score was -0.61. `O=C(Nc1ccc2c(c1)C(=O)N1CCC[C@H]1C(O)=N2)c1c(Cl)cccc1Cl` was tested, and the “% Inhibition” value was -1% and the Z score was 0.14. `Nc1ncc(Cl)cc1S(=O)(=O)N1CC(=O)N(CC(F)(F)F)C1` was tested, and the “% Inhibition” value was -8% and the Z score was 1.5. With `CC(C)CCC1=NC2(CCN([C@@H](C)CN3CCCCCC3)CC2)C(=O)N1` the “% Inhibition” value was -13% and the Z score was 1.59. For `CC(C)(C)c1ccc(C(=O)N2CCC[C@H]2c2nc(-c3ccccc3Cl)no2)cc1`, the “% Inhibition” value was -14% and the Z score was 1.58. `COc1cccc(CNC(=O)Cn2c3ccccc3c3cn[nH]c(=O)c32)c1` was tested, and the “% Inhibition” value was -6% and the Z score was 1.08. With `CN(C)C1(CN[C@H]2CCc3ccc(OC(F)(F)F)cc32)CCOCC1` the “% Inhibition” value was -3% and the Z score was 0.42. With `COC(=O)c1cc(C)nc(N2CCN(C3CCCCC3)CC2)n1` the “% Inhibition” value was 2% and the Z score was -0.37. `COc1cnc(NC(=O)N[C@H]2CCS(=O)(=O)C(C)(C)C2)s1` was tested, and the “% Inhibition” value was -15% and the Z score was 2.92. For `CO[C@@H](C)c1noc(CN(C)S(=O)(=O)c2c(C)noc2C)n1`, the “% Inhibition” value was 4% and the Z score was -0.64. With `O=C(Nc1ccon1)C(=O)NC1CCCCC1` the “% Inhibition” value was -12% and the Z score was 1.8. `O=C(NCC(=O)N1CCCS1(=O)=O)OCc1ccccc1` was tested, and the “% Inhibition” value was -17% and the Z score was 2.73. With `O=S(=O)(c1cccc2cccnc12)N1CC[C@H](n2cc(-c3ccccc3)nn2)C1` the “% Inhibition” value was -12% and the Z score was 1.6. With `CCN(CC)C(=O)[C@@H]1C[C@@H](NC(=O)c2ccno2)CN1C(=O)C1CCCC1` the “% Inhibition” value was -12% and the Z score was 1.64. For `CC[C@H](C)NC(=O)c1csc(CN(CCC(c2ccccc2)c2ccccc2)Cc2ccc(Cl)cc2)n1`, the “% Inhibition” value was -12% and the Z score was 1.35. With `COc1ccc(NC(=O)N2CCC[C@H](Cn3c(C4CC4)nc4cccnc43)C2)c(C)c1` the “% Inhibition” value was -12% and the Z score was 1.73. In the case of `CCc1ccc(CNC(=O)c2ccc(-c3noc(-c4ccc(C)cc4)n3)s2)cc1`, the “% Inhibition” value is reported as -18% and the Z score is reported as 2.43. `CCCCc1nn(CC(=O)N2CCC[C@H]2C(F)(F)F)c(=O)n1CC` was tested, and the “% Inhibition” value was 5% and the Z score was -0.63. `Cc1c(CN2CC[C@@](O)(CN3CCCCC3)C2)oc2ccccc12` was tested, and the “% Inhibition” value was -9% and the Z score was 1.23. In the case of `CC(=O)c1cn(C(C)(C)CO)c(=O)[nH]c1=O`, the “% Inhibition” value is reported as -23% and the Z score is reported as 2.66. With `Cc1ccc(-c2nc(N)n(C(=O)CCc3ccccc3)n2)cc1C` the “% Inhibition” value was -10% and the Z score was 1.62. In the case of `O=C(Nc1ccc(C(=O)N2CCCCC2)cc1)Nc1cnsn1`, the “% Inhibition” value is reported as -36% and the Z score is reported as 4.23. With `Cn1nc(CCNc2ncnc(N)c2Cl)c2ccccc21` the “% Inhibition” value was 8% and the Z score was -1.12. `N#Cc1ccccc1CN1CCC(CCC(=O)NCc2ccc(F)cc2)CC1` was tested, and the “% Inhibition” value was -8% and the Z score was 1.26. In the case of `CC(C)N(C(=O)COC(=O)c1ccc(S(=O)(=O)N2CCCCC2)cc1)c1ccccc1`, the “% Inhibition” value is reported as -13% and the Z score is reported as 2.56. With `O=S(=O)(NCc1noc(C2CCCC2)n1)c1ccc(-c2cc(C(F)(F)F)[nH]n2)o1` the “% Inhibition” value was -13% and the Z score was 1.75. With `Cc1nc(COc2cccc(C(=O)N3CCc4ccc(F)cc43)c2)no1` the “% Inhibition” value was -1% and the Z score was 0.14. In the case of `Cc1cccc(C(=O)Nc2sc3c(c2C(=O)N2CCOCC2)CCCCC3)c1`, the “% Inhibition” value is reported as -22% and the Z score is reported as 2.35. For `COc1ccc(C(=O)Nc2nccnc2C(=O)N2CCC(Cc3ccccc3)CC2)cc1`, the “% Inhibition” value was -10% and the Z score was 1.45. `Cn1cc([C@H]2CN(C(=O)CCc3nncn3C)C[C@H]2CC(=O)O)nn1` was tested, and the “% Inhibition” value was -1% and the Z score was 0.1. With `c1ccc2c(c1)OC[C@@H](c1n[nH]c3c1CN(Cc1nccs1)CC3)O2` the “% Inhibition” value was -3% and the Z score was 0.51. For `O=C1C[C@@H](C(F)(F)F)C2(CCOCC2)CN1`, the “% Inhibition” value was -1% and the Z score was 0.22. In the case of `CCOC(=O)C1CCC(O)(Cn2cnc3cc(F)c(F)cc32)CC1` (configuration not stated), the “% Inhibition” value is reported as -13% and the Z score is reported as 1.14. With `Clc1ccc([C@H](c2nnnn2C(c2ccccc2)c2ccccc2)N(Cc2ccccc2)Cc2ccccc2)c(Cl)c1` the “% Inhibition” value was 2% and the Z score was -0.2.
